# Assay results published in PubChem BioAssay AID485294 (National Center for Advancing Translational Sciences (NCATS), 2010).
# Among all 370,000 compounds or so, about 150 (0.041%) were called active. This list was built around the results that the source calls inconclusive (neither active nor inactive); the mix of calls is not that of the screen. Calls follow the shape of the dose curve; as a rule, active = well fitted inhibition curve with a large enough effect; inconclusive = small, poorly fitted or top-dose-only effect; inactive = flat fitted curve, though single readings scatter. Potencies of inconclusive entries are left out as doubtful fits.
# Target: Beta-lactamase (Escherichia coli (strain K12)) (UniProt P00811)
# UniProt P00811, sequence (P00811 whole entry, looked up): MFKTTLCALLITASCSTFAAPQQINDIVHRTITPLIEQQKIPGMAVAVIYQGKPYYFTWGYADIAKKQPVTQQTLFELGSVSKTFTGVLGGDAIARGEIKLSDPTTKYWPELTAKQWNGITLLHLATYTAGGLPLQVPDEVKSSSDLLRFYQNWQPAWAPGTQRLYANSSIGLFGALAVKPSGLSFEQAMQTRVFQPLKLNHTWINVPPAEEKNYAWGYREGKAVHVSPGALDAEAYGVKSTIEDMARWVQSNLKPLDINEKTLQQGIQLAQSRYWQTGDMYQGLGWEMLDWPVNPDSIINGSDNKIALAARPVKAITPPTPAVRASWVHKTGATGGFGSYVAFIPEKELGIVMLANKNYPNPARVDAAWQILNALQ
# Assay: qHTS Inhibitors of AmpC Beta-Lactamase (assay with detergent); also: nearly all actives have a fitted effect of over 25% in size;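 as to activity change, negative = inhibition: 0% = no-compound wells and -100% = no-enzyme wells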
# Details: AmpC hydrolysis of nitrocefin, absorbance 480 nm, 0.01% Triton; activity change, negative = inhibition: at 114 µM (top of the series)
# Outline: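 20 mM phosphate pH 7.0 + 0.01% (detergent screen) or 0.0001% Triton X-100; 5.3 nM AmpC reagent; cpd preinc 15 min RT; nitrocefin (800 uM stock) to start; A480 q20 s × 4 min; Activity was normalised to no-enzyme and no-compound control wells.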
# Potency is read from the fitted curve at half-maximal effect; tags tell the direction and shape of the fitted curve.
SMILES,"activity change, negative = inhibition",Potency
CC(=O)Nc1ccc(S(=O)(=O)N(C)CC(=O)OCC(=O)N(C)C2CCS(=O)(=O)C2)cc1 (stereo unspecified),inactive: 0%,
CCc1nc(SCC(=O)NNC(=O)C(C)C)c2ccccc2n1,inactive: -0.233%,
O=C(CSc1nnnn1-c1cccc2ccccc12)N1CCOCC1,,"inconclusive [inhibitor, single point]"
Cn1c(CN2CCCC2)nc2cc(NC(=O)COc3ccc(Cl)cc3)ccc21,,"inconclusive [inhibitor, single point]"
COc1ccc(-c2noc(N3CCCC(C(=O)Nc4ccccc4F)C3)n2)cc1 (stereo unspecified),,"inconclusive [inhibitor, partial curve]"
COC(CNC(=O)C(=O)Nc1ccc2c(c1)N(S(=O)(=O)c1cccs1)CCC2)OC,,"inconclusive [inhibitor, single point]"
CN=C(Nc1cc(Cl)ccc1Cl)SC1CC(=O)N(c2ccc(C(=O)OC)cc2)C1=O (stereo unspecified),,"inconclusive [inhibitor, full curve]"
O=C(CSC1=Nc2ccccc2N=C(c2ccc(F)cc2)C1)NCc1ccccc1Cl,inactive: 19.5%,
COC(=O)Nc1nc2ccc(Sc3ccccc3)cc2[nH]1,,"inconclusive [inhibitor, full curve, poor fit]"
O=S(=O)(NCc1csc(-c2cccnc2)n1)c1cccs1,,"inconclusive [inhibitor, partial curve, poor fit]"
Cc1cc(NC(=O)c2ccco2)ncc1NC(=O)Cc1ccccc1,,"inconclusive [inhibitor, full curve, poor fit]"
CNC(=O)CSc1nnc(-c2ccco2)n1-c1cccc(OC)c1,,"inconclusive [inhibitor, full curve]"
COc1ccc(N(CN2C(=O)c3ccccc3C2=O)C(=O)C(C)C)cc1,inactive: 0.76%,
CCN1CCN(c2cc3nc(C)n(Cc4ccccc4)c(=O)c3cc2NC(=O)c2ccccc2F)CC1,,"inconclusive [inhibitor, single point]"
CCn1c(CNc2ccc(Cl)cc2)nnc1SCC(=O)NCc1ccccc1,,"inconclusive [inhibitor, partial curve, poor fit]"
O=C(CSc1nnc(CNc2ccc(F)cc2)o1)N1CCN(C(=O)c2ccco2)CC1,,"inconclusive [inhibitor, full curve, poor fit]"
CCOc1ccc(CCNC(=O)c2cccc(NC3=NC4CS(=O)(=O)CC4S3)c2)cc1 (stereo unspecified),,"inconclusive [inhibitor, partial curve]"
Cc1cc(C)n2c(SCC(=O)NCc3ccc4c(c3)OCO4)nnc2n1,inactive: 4.91%,
O=C(COC(=O)C1CCN(S(=O)(=O)c2ccc3c(c2)OCCO3)CC1)Nc1ccc(C(F)(F)F)cc1,inactive: -9.94%,
Cc1occc1-c1nnc(SCC(=O)N(C)C)o1,,"inconclusive [inhibitor, full curve, poor fit]"
CN(C(=O)c1cccc(N2C(=O)C3CC=CCC3C2=O)c1)C1CCCCC1 (stereo unspecified),inactive: -6.16%,
COc1cccc(N2CCN(Cc3nc4scc(-c5ccccc5)c4c(=O)[nH]3)CC2)c1,,"inconclusive [inhibitor, partial curve]"

SMILES,"activity change, negative = inhibition",Potency
COc1ccc(OCC(=O)Nc2cc(-c3nn(C)c(=O)c4ccccc34)ccc2OC)cc1,inactive: 1.27%,
CCOc1ccc2nc(SCC(=O)N(CC(C)C)c3c(N)n(Cc4ccccc4)c(=O)[nH]c3=O)[nH]c2c1,,"inconclusive [inhibitor, full curve, poor fit]"
CCn1c(SCC(=O)Nc2ccc(OC)c(OC)c2)nnc1-c1cccs1,,"inconclusive [inhibitor, full curve, poor fit]"
CCOc1ccc(CCNC(=O)CN2C(=O)NC3(CCCCCC3)C2=O)cc1OCC,,"inconclusive [inhibitor, full curve, poor fit]"
COc1ccc(NC(=O)c2ccc(-c3ccc(C(C)=O)cc3)o2)cn1,inactive: 5.74%,
CC(=O)Nc1nc(-c2cccc3ccccc23)cs1,,"inconclusive [inhibitor, full curve, poor fit]"
COc1ccccc1CC(=O)Nc1ccc2nc(C)sc2c1,inactive: -3.99%,
COc1ccc(CNC(=O)c2cnn(-c3ccc(C)cc3)c2-n2cccc2)cc1OC,inactive: -6.42%,
CCOc1ccc(S(=O)(=O)N2CCC(N3CCN(Cc4ccc(C)cc4)C(=O)C3=O)CC2)cc1,inactive: 2.4%,
Cc1cccc(C)c1NC(=S)N(CCCN1CCN(C)CC1)Cc1cccs1,,"inconclusive [inhibitor, partial curve]"
COc1ccc(NCC(=O)N/N=C2\CCc3ccccc32)cc1,,"inconclusive [inhibitor, full curve, poor fit]"
COc1cc(NC(=O)CSc2nc(C)cs2)cc(OC)c1,,"inconclusive [inhibitor, partial curve]"
O=C(O)c1ccc(Cn2c(SCc3cc(=O)n4cc(Br)ccc4n3)nc3ccsc3c2=O)cc1,,"inconclusive [inhibitor, partial curve, poor fit]"
Cc1nn(C)c2c1c(-c1ccccc1)cc(=O)n2Cc1ccc(Cl)cc1,inactive: -0.355%,
CCOC(=O)CN(Cc1ccc(OC)c(OC)c1)S(=O)(=O)c1ccc(OC)cc1,,"inconclusive [inhibitor, full curve]"
CCN(CC)c1nc(N2CCOCC2)c(C#N)c2c1CN(C)CC2,,"inconclusive [inhibitor, full curve, poor fit]"
COc1ccc(-n2c(/C=C/c3c(C)[nH]c4ccccc34)nc3ccccc3c2=O)cc1,inactive: -15.8%,
CCn1c(SCC(=O)NCc2cccs2)nnc1-c1ccncc1,,"inconclusive [inhibitor, full curve, poor fit]"
O=C1Nc2ccccc2/C1=N\N=C\C1=C(N2CCOCC2)C(=C\c2ccccc2)/CC1,inactive: 2.12%,
CC1CCCCN1C(=O)c1ccc(COc2ccc([N+](=O)[O-])cc2)o1 (stereo unspecified),,"inconclusive [inhibitor, partial curve, poor fit]"
CC1=NC(Nc2nc(C)c3ccccc3n2)=NC(C)(C)C1,,"inconclusive [inhibitor, full curve, poor fit]"
O=C(Nc1cccc(Cl)c1)Nc1csc([N+](=O)[O-])c1,inactive: 8.47%,

SMILES,"activity change, negative = inhibition",Potency
CCOc1cc(C)cc2oc(=O)cc(-c3ccccc3)c12,,"inconclusive [inhibitor, single point]"
Cc1ccc(S(=O)(=O)N2CCC(C(=O)OCc3ccc([N+](=O)[O-])cc3)CC2)cc1,,"inconclusive [inhibitor, partial curve, poor fit]"
C=C(C)C1CC=C(C)/C(=N/NC(=O)COc2ccc(C)cc2)C1 (stereo unspecified),inactive: 0.726%,
COc1ccc(C2C=C(c3ccccc3)Nc3nc(NC(=O)/C=C/c4ccc(F)cc4)nn32)cc1 (stereo unspecified),inactive: 13.4%,
Cc1ccc(S(=O)(=O)Oc2ccc(/C=N/NC(=O)c3nn(C)cc3[N+](=O)[O-])cc2)cc1,,"inconclusive [inhibitor, partial curve]"
O=C(Nc1ccc(CN2CCOCC2)cc1)c1ccc(-c2ccc(Br)cc2)o1,,"inconclusive [inhibitor, single point]"
O=C(C[n+]1ccccc1)Nc1ccc(Cl)c([N+](=O)[O-])c1,,"inconclusive [inhibitor, full curve, poor fit]"
COc1ccccc1-c1cc(C(=O)NCc2ccc(F)cc2)no1,,"inconclusive [inhibitor, full curve, poor fit]"
O=C(O)C1C(=O)NCC1c1ccccc1 (stereo unspecified),,"inconclusive [inhibitor, partial curve, poor fit]"
COc1ccc(C2C(C(=O)NCc3ccccc3)=C(C)Nc3ncnn32)cc1OC (stereo unspecified),,"inconclusive [inhibitor, full curve, poor fit]"
CCOC(=O)c1cc(-c2ccccc2)sc1NC(=O)CSc1nnnn1C,,"inconclusive [inhibitor, full curve, poor fit]"
COc1ccc(NN=Nc2ccc([N+](=O)[O-])cc2)cc1,,"inconclusive [inhibitor, partial curve, poor fit]"
Cc1occc1C(=O)N/N=C/c1ccc2c(c1)OCO2,inactive: -6.6%,
O=C(CN1CCC(NC(=O)C2CCCCC2)CC1)Nc1cccc(F)c1,,"inconclusive [inhibitor, partial curve, poor fit]"
C/C(=N\OC(=O)c1ccc(Cl)cc1)c1sc(-c2ccccc2)nc1C,,"inconclusive [inhibitor, full curve, poor fit]"
Cc1ccc(S(=O)(=O)NC(C)C(=O)N2CCOCCOCCOCCOCC2)cc1 (stereo unspecified),,"inconclusive [inhibitor, full curve]"
CCOCCCNC(=O)C1CC(=O)N(C2CCCC2)C1 (stereo unspecified),,"inconclusive [inhibitor, partial curve]"
O=C(c1sc2ccccc2c1Cl)N1CCC2(CC1)OCCO2,inactive: 0.617%,
Cc1c(O)c(=O)ccn1Cc1ccccc1,,"inconclusive [inhibitor, full curve, poor fit]"
O=C1c2cccc3c([N+](=O)[O-])ccc(c23)C(=O)N1CC1CCCO1 (stereo unspecified),,"inconclusive [inhibitor, single point]"
COc1ccc(Cl)cc1NC(=O)CN(C)C(=O)c1n[nH]c2ccccc12,,"inconclusive [inhibitor, full curve]"
CC(/C=N/NC(=S)Nc1cccc(S(=O)(=O)N(C)C)c1)c1ccccc1 (stereo unspecified),,"inconclusive [inhibitor, full curve, poor fit]"
